Assay results: the supplement of paper PMC6089552
About 300 (9.4%) of roughly 3,200 compounds showed activity. This is a selection; strong and weak results do not stand in their true shares.

System: A673/TR/shEF
Test: cell viability (LOESS-normalised, relative to median of negative controls) (log2 ratio); higher = more viable cells (less compound effect), active = hit call of the paper (over 3 MAD below the median)
Conditions: treatment time: 72 h
Summary of the method: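 Viability of A673/TR/shEF Ewing sarcoma cells was determined by CellTiter-Glo luminescence. The cells, at 1,500 per well in 384-well plates, were grown with or without doxycycline from 24 h before compound addition to switch on EWS-FLI1 shRNA knockdown, then exposed for three days to library compounds at two or more concentrations or to DMSO controls. Signals were LOESS-corrected plate by plate, normalised to the negative-control median and log2-transformed.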

[1] = 0.25 µM, library screen: screen1, EWS-FLI1 expression: high (no doxycycline)
[2] = 0.25 µM, library screen: screen1, EWS-FLI1 expression: low (doxycycline-induced shRNA knockdown)
[3] = 0.25 µM, library screen: screen2, EWS-FLI1 expression: high (no doxycycline)
[4] = 0.25 µM, library screen: screen2, EWS-FLI1 expression: low (doxycycline-induced shRNA knockdown)
[5] = 2.5 µM, library screen: screen1, EWS-FLI1 expression: high (no doxycycline)
[6] = 2.5 µM, library screen: screen1, EWS-FLI1 expression: low (doxycycline-induced shRNA knockdown)
[7] = 2.5 µM, library screen: screen2, EWS-FLI1 expression: high (no doxycycline)
[8] = 2.5 µM, library screen: screen2, EWS-FLI1 expression: low (doxycycline-induced shRNA knockdown)
[9] = 0.103 µM, library screen: screen3, EWS-FLI1 expression: high (no doxycycline)
[10] = 0.103 µM, library screen: screen3, EWS-FLI1 expression: low (doxycycline-induced shRNA knockdown)
[11] = 0.308 µM, library screen: screen3, EWS-FLI1 expression: high (no doxycycline)
[12] = 0.308 µM, library screen: screen3, EWS-FLI1 expression: low (doxycycline-induced shRNA knockdown)
[13] = 0.926 µM, library screen: screen3, EWS-FLI1 expression: high (no doxycycline)
[14] = 0.926 µM, library screen: screen3, EWS-FLI1 expression: low (doxycycline-induced shRNA knockdown)
[15] = 2.8 µM, library screen: screen3, EWS-FLI1 expression: high (no doxycycline)
[16] = 2.8 µM, library screen: screen3, EWS-FLI1 expression: low (doxycycline-induced shRNA knockdown)
[17] = 8.3 µM, library screen: screen3, EWS-FLI1 expression: high (no doxycycline)
[18] = 8.3 µM, library screen: screen3, EWS-FLI1 expression: low (doxycycline-induced shRNA knockdown)
[19] = 25 µM, library screen: screen3, EWS-FLI1 expression: high (no doxycycline)
[20] = 25 µM, library screen: screen3, EWS-FLI1 expression: low (doxycycline-induced shRNA knockdown)

Measured: cell viability (log2)

O=c1cc(-c2ccc(O)c(O)c2)oc2cc(O)cc(O)c12
inactive: [1] 0.0908 | [2] 0.0963 | [3] 0.121 | [4] 0.0811 | [5] 0.134 | [6] 0.0546 | [7] 0.0837 | [8] 0.0515

COc1ccc2c(c1)CCC1=CC(=O)CC[C@@]12C
inactive: [1] 0.0515 | [2] 0.00881 | [5] 0.19 | [6] 0.155

NCCCCNCCCN
inactive: [1] 0.108 | [2] 0.0718 | [3] 0.0614 | [4] 0.0614 | [5] 0.103 | [6] -0.0247 | [7] 0.156 | [8] 0.0692

COC(=O)Nc1ccc(-c2nc(N3CCOCC3)c3cnn(C4CCN(Cc5cccnc5)CC4)c3n2)cc1
inactive: [9] -0.0181 | [10] 0.0282 | [11] -0.00456 | [12] -0.0439 | [13] -0.169 | [14] -0.0706
active: [15] -0.33 | [16] -0.297 | [17] -0.973 | [18] -0.691 | [19] -1.84 | [20] -1.76

CCC(NC(C)C)C(O)c1ccc(O)c(O)c1 (stereo not given)
inactive: [3] 0.115 | [4] 0.155 | [7] 0.102 | [8] 0.0162

CCC(Cc1c(I)cc(I)c(N)c1I)C(=O)O (stereo not given)
inactive: [1] 0.0938 | [2] 0.0028 | [5] 0.0894 | [6] 0.0528

CN(C)c1ccc(O)c2c1C[C@H]1C[C@H]3[C@H](N(C)C)C(=O)C(C(N)=O)=C(O)[C@@]3(O)C(=O)C1=C2O
inactive: [2] -0.0588 | [3] 0.0664 | [4] 0.133 | [6] 0.0344 | [7] 0.00725 | [8] 0.0554
active: [1] -0.177 | [5] -0.0936

CN1CCc2cccc3c2[C@H]1Cc1ccc(O)c(O)c1-3
inactive: [1] 0.0695 | [2] 0.146 | [3] 0.198 | [4] 0.075 | [5] 0.158 | [6] 0.349 | [7] 0.00124 | [8] 0.0354

C[C@]12CCC3c4ccc(OC(=O)CCC(=O)O)cc4CCC3C1CCC2=O (stereo not given in full)
inactive: [1] 0.126 | [2] 0.0832 | [5] 0.102 | [6] 0.0823

C[C@]12CC[C@@H]3c4ccc(O)cc4CC[C@H]3[C@@H]1CC[C@@H]2OC(=O)CCC1CCCC1
active: [1] -0.302

CO[C@@]1(NC(=O)CSCC#N)C(=O)N2C(C(=O)O)=C(CSc3nnnn3C)CS[C@@H]21
inactive: [1] 0.154 | [2] -0.106 | [3] 0.158 | [4] 0.135 | [5] 0.0644 | [6] 0.14 | [7] 0.171 | [8] 0.0931

COc1ccc2[nH]c(I)c(CCNC(C)=O)c2c1
inactive: [3] 0.187 | [4] 0.0791 | [7] 0.155 | [8] 0.127

C[C@@H]1[C@H](O)[C@@H](C)/C=C/C=C/C=C/C=C/C=C/C=C/C=C/[C@H](O[C@@H]2O[C@H](C)[C@@H](O)[C@H](N)[C@@H]2O)C[C@@H]2O[C@](O)(C[C@@H](O)C[C@@H](O)[C@H](O)CC[C@@H](O)C[C@@H](O)CC(=O)O[C@H]1C)C[C@H](O)[C@H]2C(=O)O
inactive: [1] 0.127 | [2] 0.0173 | [5] 0.193 | [6] 0.107

CC(N)=NCCCC[C@@H](N)C(=O)O
inactive: [3] 0.115 | [4] 0.025 | [7] 0.097 | [8] 0.0427

CCOC(=O)C(C)(C)Oc1ccc(Cl)cc1
inactive: [9] 0.206 | [10] 0.0599 | [1] 0.214 | [2] 0.14 | [3] 0.131 | [4] 0.176 | [11] 0.148 | [12] 0.147 | [13] 0.109 | [14] 0.0982 | [5] 0.23 | [6] 0.0959 | [7] 0.11 | [8] 0.0389 | [15] 0.139 | [16] 0.076 | [17] 0.136 | [18] 0.0942 | [19] 0.0815 | [20] 0.129

c1cnc2c(c1)ccc1cccnc12
inactive: [3] 0.203 | [4] 0.155 | [7] -0.0425 | [8] 0.185

CC(C)NC[C@H](O)COc1ccc(CC(N)=O)cc1
inactive: [3] 0.0989 | [4] 0.138 | [7] 0.14 | [8] 0.111

C=C1C2CC[C@@]3(C)[C@H](c4ccoc4)OC(=O)C[C@]13O[C@H]1CC(O)C(C)(C)C(CC(=O)OC)[C@@]21C (stereo not given in full)
inactive: [1] 0.0702 | [2] 0.0804 | [5] 0.102 | [6] 0.0526

Brc1ccc([C@H]2CN3CCSC3=N2)cc1
inactive: 0.025 µM, library screen: screen1, EWS-FLI1 expression: high (no doxycycline) 0.216 | 0.025 µM, library screen: screen1, EWS-FLI1 expression: low (doxycycline-induced shRNA knockdown) 0.000942 | [1] 0.234 | [2] 0.105 | [3] -0.0213 | [4] 0.123 | [6] -0.0691 | [7] 0.117 | [8] 0.109
active: [5] -0.357 | 25 µM, library screen: screen1, EWS-FLI1 expression: high (no doxycycline) -0.468 | 25 µM, library screen: screen1, EWS-FLI1 expression: low (doxycycline-induced shRNA knockdown) -0.309

C=CC[C@H](N)C(=O)O
inactive: [3] 0.0719 | [4] 0.157 | [7] 0.0838 | [8] 0.116

O=C(O)c1ccccc1Nc1ccccc1
inactive: [3] -0.0398 | [4] 0.068 | [7] 0.0734 | [8] 0.0692

C/C=C/C1=C(C(=O)O)N2C(=O)[C@@H](NC(=O)[C@H](N)c3ccc(O)cc3)[C@H]2SC1
inactive: [9] 0.0139 | [10] -0.0264 | [11] 0.0206 | [12] 0.0411 | [13] 0.0707 | [14] 0.0681 | [15] 0.0633 | [16] 0.0434 | [17] 0.0512 | [18] 0.0505 | [19] 0.0519 | [20] 0.0834

COc1c(O)cc2c(-c3ccccc3)cc(=O)oc2c1OC
inactive: [1] 0.0942 | [2] 0.0479 | [5] 0.133 | [6] 0.16

CCCCCCCCCCCCCCCC(=O)NCCO
inactive: [3] 0.109 | [4] 0.0709 | [7] 0.0624 | [8] 0.0396

CO[C@@H](C(=O)N1Cc2[nH]nc(NC(=O)c3ccc(N4CCN(C)CC4)cc3)c2C1)c1ccccc1
active: [9] -0.25 | [11] -0.418 | [13] -0.596 | [14] -0.134 | [15] -0.679 | [16] -0.355 | [17] -0.794 | [18] -0.46 | [19] -1.13 | [20] -1.21

CCN(CCO)CCCOc1ccc2c(Nc3cc(CC(=O)Nc4cccc(F)c4)[nH]n3)ncnc2c1
active: [9] -0.49 | [11] -0.395 | [13] -0.452 | [15] -0.473 | [16] -0.112 | [17] -0.446 | [19] -0.681

CC(C)CC(NP(=O)(O)O[C@@H]1O[C@@H](C)[C@H](O)[C@@H](O)[C@H]1O)C(=O)NC(Cc1c[nH]c2ccccc12)C(=O)O (stereo not given in full)
inactive: [3] 0.0833 | [4] 0.00183 | [7] 0.149 | [8] -0.00437

Cc1cc(=O)n(-c2ccccc2)n1C
inactive: [1] 0.065 | [2] 0.101 | [5] 0.125 | [6] 0.137

N#Cc1c2c(c(Nc3ccc(O)cc3)n3c1nc1ccccc13)CCC2
inactive: [1] 0.0182 | [2] 0.0391 | [5] 0.0659 | [6] 0.0482

N#C/C(=C\c1ccc(O)c(O)c1)C(=O)c1ccc(O)c(O)c1
active: [3] -0.567 | [4] -0.546 | [7] -2.72 | [8] -2.83

COc1cccc(CN2CCN(Cc3c[nH]c4ccccc34)CC2)c1
inactive: [1] 0.11 | [2] 0.105 | [5] 0.138 | [6] 0.0572

NC12CC3CC(CC(C3)C1)C2
inactive: [9] -0.06 | [10] 0.0955 | [1] 0.0786 | [2] 0.0271 | [3] -0.0293 | [4] 0.102 | [11] 0.143 | [12] 0.00388 | [13] 0.109 | [14] 0.0536 | [5] 0.0862 | [6] 0.153 | [7] 0.0621 | [8] 0.12 | [15] 0.0464 | [16] 0.0713 | [17] 0.0902 | [18] 0.067 | [19] 0.0699 | [20] 0.0562

O=C(O)c1cc(O)c2c(c1)[C@@H]([C@H]1c3cc(C(=O)O)cc(O)c3C(=O)c3c(O[C@@H]4O[C@H](CO)[C@@H](O)[C@H](O)[C@H]4O)cccc31)c1cccc(O[C@@H]3O[C@H](CO)[C@@H](O)[C@H](O)[C@H]3O)c1C2=O
inactive: [1] 0.0389 | [2] 0.0283 | [5] 0.0965 | [6] 0.0542

CC1(C2CCCC2)Cc2cc(OCC(=O)O)c(Cl)c(Cl)c2C1=O (stereo not given)
inactive: [3] 0.0571 | [4] 0.0595 | [7] 0.163 | [8] 0.131

CO[C@H]1O[C@@H]2O[C@@]3(C)CC[C@H]4[C@H](C)CC[C@@H]([C@H]1C)[C@@]24OO3
inactive: [9] -0.0159 | [10] 0.0141 | [11] 0.079 | [12] 0.077 | [13] 0.0497 | [14] 0.0228 | [15] 0.0263 | [16] 0.0639 | [17] 0.0475 | [18] 0.128 | [19] 0.102 | [20] 0.0938
